Assay results reported in the supplement of paper PMC10126150.
Values marked as one replicate rest on one cluster of the flow cell; about a third of the high ones do not repeat.

tested on: ATP; assay: switch fluorescence ratio, 500 uM ATP over buffer (Cy3 cluster intensity, sum of 5 cycles each) (fold (ratio)); higher = stronger signal-on switching upon ATP binding; sequences stand for … in TCGTCGGCAGCGTCAGATGTGTATAAGAGACAGTTTTTTTTTTTTTTTTTTTTTTTTT…TC; settings: aptamer strand: ATP DNA aptamer (quencher-CACCTGGGGGAGTATTGCGGAGGAAGG + anchor), 100 nM annealed; ATP concentration: 500 uM; one replicate
How it was run: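 Exposure to 500 uM ATP lasted 15 min at 22 °C before imaging, and a selection-buffer image was taken beforehand, for Cy3-labelled switching-strand clusters on a modified Illumina MiSeq flow-cell annealed to 100 nM quencher-labelled ATP aptamer. Five buffer/ATP cycles were run with NaOH stripping and re-annealing between them. The fluorescence ratio per cluster is summed target-cycle over summed buffer-cycle Cy3 intensity, averaged per switch-domain sequence. Clusters outside 100-1000 RFU were excluded.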

Sequence	switch fluorescence ratio
TAAGCCACCA	1.14
TAAGCCAGG	1.06
TAAGCCAGT	0.974
TAAGCCAGTG	1.07
TAAGCCGCAC	1.62
TAAGCCTAG	0.991
TAAGCGCACA	1.05
TAAGCGGGTG	0.99
TAAGCGTCAC	1.08
TAAGCGTTGG	0.993
TAAGCTCGTA	0.963
TAAGCTCTTG	0.97
TAAGGACCCC	1.06
TAAGGAGATA	1.02
TAAGGAGGAA	1.01
TAAGGAGTCA	1.06
TAAGGCAAAG	1.06
TAAGGCAACG	0.999
TAAGGCGCT	0.97
TAAGGCGGGA	0.961
TAAGGCTGCA	0.978
TAAGGCTTCC	1.6
TAAGGGCCTG	0.99
TAAGGGTCTC	0.99
TAAGGTAGAG	1.04
TAAGGTTTC	0.975

Sequence	switch fluorescence ratio
TAAGTACATG	1.19
TAAGTAGACC	0.973
TAAGTATAAA	1.03
TAAGTCACAC	1.04
TAAGTCCACA	1.09
TAAGTCGAGA	1.04
TAAGTGAGAC	1.11
TAAGTGCTTT	1.02
TAAGTGGTAG	1.01
TAAGTTAAGT	1.02
TAAGTTGC	0.992
TAAGTTGGGC	0.816
TAAGTTTCGG	1.01
TAATAAAGGC	0.971
TAATAAGTCC	0.987
TAATAATAGT	0.961
TAATACGACT	1.08
TAATACGTCT	1.03
TAATACTTTA	0.994
TAATAGACAA	0.973
TAATAGATA	0.966
TAATAGCCGT	1.01
TAATATGCG	0.981
TAATATTATG	1.03
TAATATTCCT	1.04
TAATATTTGG	0.997

Sequence	switch fluorescence ratio
TAATCCCGA	0.994
TAATCCCGTG	0.991
TAATCCGGTT	0.979
TAATCGCAGA	0.985
TAATCGGAGC	0.957
TAATCGGATG	0.98
TAATCTGAAA	1.07
TAATCTTAAA	1.06
TAATCTTCTG	1.01
TAATGCCGTT	0.992
TAATGCCTTA	0.971
TAATGCGGAA	1.08
TAATGGAGCC	0.98
TAATGTACAC	1.05
TAATGTAGGC	0.935
TAATGTCTAA	0.99
TAATGTGCCG	1
TAATGTGGC	1.01
TAATGTTTCA	1.01
TAATTAAGCC	0.965
TAATTACAAA	1.01
TAATTATGGT	1.02
TAATTCTGCT	1.03
TAATTGTTT	1
TAATTTACAC	1.06
TAATTTCCAA	0.999

Sequence	switch fluorescence ratio
TAATTTCCGC	1.15
TAATTTCGAG	1.01
TAATTTTCCC	1.04
TAATTTTGCA	0.984
TAATTTTGGA	1.03
TACAAACGAT	1.23
TACAAATGGA	1.01
TACAAATTGC	1.14
TACAAGGTCG	0.988
TACAATAGAA	0.995
TACAATGTG	0.96
TACACAATGG	1.22
TACACGCCGC	1.25
TACACTTACC	1.3
TACAGACGGG	0.979
TACAGCCCCC	1.17
TACAGCCGCA	1.51
TACAGCGAGT	1.04
TACAGCGTG	0.943
TACAGGAGTG	0.956
TACAGGCTCT	1.06
TACAGGGGCG	1.06
TACAGGGTGC	1.16
TACATCGAGA	1.02
TACATTACT	1.35
TACATTCCTT	1.05

Sequence	switch fluorescence ratio
TACATTTAAG	1.03
TACATTTCA	0.997
TACCAGATGT	1.08
TACCAGGATG	1.28
TACCAGTAT	0.991
TACCAGTTTG	1.05
TACCATATGT	1.08
TACCATGTCA	1.06
TACCATTTCT	1.04
TACCGAATAG	1.27
TACCGATTAA	0.995
TACCGCCGTA	1
TACCGGCGAC	1.1
TACCGGCTTA	1.05
TACCGGTTCT	1.02
TACCGTCCTA	1.05
TACCGTGATG	1
TACCGTGGCG	0.97
TACCTAATAA	1.01
TACCTACCGG	1.05
TACCTACCTA	1.3
TACCTTACTG	1.39
TACCTTTCGG	1.08
TACGAAAAAT	1.18
TACGAAAATG	1.18
TACGAATCGT	0.981

Sequence	switch fluorescence ratio
TACGAATTAA	1.02
TACGACAGCG	0.994
TACGACTTAA	1.18
TACGATCTGA	0.999
TACGATCTGT	0.971
TACGCATCCT	1.35
TACGCGACGG	1.1
TACGCGCCCC	1.07
TACGCGGCG	0.997
TACGCTCTGA	1.01
TACGGACGCT	1.21
TACGGATGGC	0.936
TACGGCAGGC	1.15
TACGGGCCTA	1.01
TACGGTGGCC	0.991
TACGGTTATA	1.07
TACGTAATAA	1.41
TACGTACAAA	1.42
TACGTACAAT	1.46
TACGTAGGTA	1.01
TACGTCAATT	1.28
TACGTCTTGC	1
TACGTGACTA	1.26
TACGTGGCGT	1.02
TACTAAGGGA	1.02
TACTACACGG	1.43

Sequence	switch fluorescence ratio
TACTAGTCTG	1.07
TACTATAAGC	1.07
TACTATGTAT	0.971
TACTCAACTA	1.14
TACTCACAGC	1.36
TACTCCAAAA	4.1
TACTCTTTT	0.993
TACTGAGGA	1
TACTGCGGAC	1.35
TACTGTAGTC	1.1
TACTGTCTT	0.986
TACTGTTTTA	1.04
TACTTAGGCT	1.03
TACTTCCAT	1.04
TACTTGCAAT	3.02
TACTTGCGTC	1
TACTTTGACG	1.24
TAGAAAAAAT	0.986
TAGAAACAGC	1
TAGAAACCT	2.66
TAGAAACTCG	1.04
TAGAAAGAGT	0.99
TAGAAAGATC	0.973
TAGAAAGTT	0.986
TAGAACAAGG	1.03
TAGAACCCGC	1.05

Sequence	switch fluorescence ratio
TAGAACGATG	0.981
TAGAACGCA	1.12
TAGAACGGGA	0.968
TAGAAGATAT	1
TAGAAGATGG	0.984
TAGAATAACA	0.99
TAGAATATCT	0.937
TAGAATCTTG	1.06
TAGAATTTAT	0.962
TAGACAGTAA	1.1
TAGACATTAT	0.988
TAGACCATTC	1.01
TAGACGCGA	1.44
TAGACGCGCA	1.04
TAGACGGTTA	1.04
TAGACTGTA	1.04
TAGACTTACG	1.02
TAGAGAAGCG	1
TAGAGCAGCA	1.01
